The values below come from PMC12136788.

The list shows a part of the results.

Sequences and labels used below:
T1: UNK ZnF1-3 (human, UniProt Q9C0B0 31-174)
T1 sequence: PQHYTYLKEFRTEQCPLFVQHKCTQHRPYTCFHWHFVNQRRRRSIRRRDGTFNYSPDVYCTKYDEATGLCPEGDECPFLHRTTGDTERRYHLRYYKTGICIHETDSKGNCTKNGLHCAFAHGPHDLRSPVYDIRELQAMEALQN

B1: chr5:21408736:21408737:-_ENSMUSG00000042453_ENSMUST00000161356|mus_hu|mus_mus_mus_hu_False|58_78 (ssRNA)
RNA: GGGAGUUCUACAGUCCGACGAUCGUUGACAGAGUUGUAGAUGGUGGCUUCAUGGAACUGGAACGGGGAGCAGCCAAUGCUAUUGGAAGAGGAAGGAAGGCACUGGGUCUGUACGAGCUGCCAGGAAUCCGAUCUUGCAUCCUUCAACAGAGGAUUGAGCAUCA
B2: chr12:39763582:39763583:-_ENSG00000139116_ENST00000544797|hu_mus|hu_hu_hu_mus_False|58_68 (ssRNA)
RNA: GGGAGUUCUACAGUCCGACGAUCCUCUAGGAACUGGGCAUUCACUUUGAAUUCAGGAGGGGGCAGCCCAUUUUUAAUUGCUAUGUGCUUUUUCUCAUCAAUACUCUUGAACAGGUGUCUAACAGCACGAGAGAUGAUGCCCUGCAACAGAGGAUUGAGCAUCA
B3: chr12:110720550:110720551:+_ENSG00000174437_ENST00000539276|hu_hu|FALSE|FALSE (ssRNA)
RNA: GGGAGUUCUACAGUCCGACGAUCUUCUUCAAACCAAGCCAAAACAAAAGAUAUACAUGCUGCCAGUAAUAAAAUCCUAACUAGCAAGUCUUCAAACUGCUCAAUCACAAGUUCCAGCAAGGUUUUUCCUUCUUCAGCCGGUAACAACAGAGGAUUGAGCAUCA
B4: chr6:41067180:41067181:+_ENSG00000001167_ENST00000341376|hu_hu|FALSE|FALSE (ssRNA)
RNA: GGGAGUUCUACAGUCCGACGAUCACAAAAUUCAAAGUCAUCUCCCCCCAAAUAAAAAAUUCAGCAACAAGGCUGGCAUUACUAUGUACAAACUUACAGACACAAAUAAAUAGCAUCUUCUAACUGUUGGCAGCUUAAGCACUCCAACAGAGGAUUGAGCAUCA
B5: 76460248_76461003_3569_CDS_ENSMUSG00000059323_ENSMUST00000168185|mouse|control|control (ssRNA)
RNA: GGGAGUUCUACAGUCCGACGAUCCAAGGUUUUCAGGUGCACAGCAUCUUGGAAGGCACCGCCCAGGGCAGCCUGGUGGCUCAGGAAGAAACUGGAGCUGAAGCCACAGGCCUGUAGGCGCAGGGUGCUGAGCAUGGGGCAGGCCAACAGAGGAUUGAGCAUCA
B6: chr17:30658727:30658728:-_ENSG00000108666_ENST00000577809|hu_hu|motif|central (ssRNA)
RNA: GGGAGUUCUACAGUCCGACGAUCUUCAAAUCAUCUUAAAUAGCAAUCCUAUGAACAAUUAUAACUGCAAUUUCAAACACGGAGACUUAAAUAUACAACUUGAUCAUACAAUUAUCUCAAAACAUAUGAUCAAAAACUUUGGUCCAACAGAGGAUUGAGCAUCA
B7: 30706281_30707774_1103_CDS_ENSMUSG00000040850_ENSMUST00000041231|mouse|control|control (ssRNA)
RNA: GGGAGUUCUACAGUCCGACGAUCUAAAAAUCUUGGGACUAAAACUUGACUGCUUCCCACUGGGAGGUUCAGGCUUCUCAGAAUUCUUGUAAAUAUCUUCGGUACAUAUGGAUCCCAAUCUAUGUAUCCUAUAUUAUCUGUAGCCAACAGAGGAUUGAGCAUCA
B8: chr17:57652765:57652766:+_ENSG00000108406_ENST00000251241|hu_hu|motif|central (ssRNA)
RNA: GGGAGUUCUACAGUCCGACGAUCAUCAUAAUCAUAAUCAACAGACUCUGCCAUCUGAAAAAGUAACUCACAACUUUUUUCGGUUUCAAACUGGCCAGUCAGAAAAACCAAGAUGUCUCCAGCCAUUUCAUUCAAAUGGAUAUCCAACAGAGGAUUGAGCAUCA
B9: 32644763_32644883_1895_3pUTR_ENSMUSG00000002997_ENSMUST00000036497|mouse|control|control (ssRNA)
RNA: GGGAGUUCUACAGUCCGACGAUCAAAAGGUAGAAAAUGAAAUGAUUGACACUUUACCAUCUGAUGAAUUAUAAAAAGAAUGGAAUACCACGUUAGAGCGCAUGAGCCACUGCCAGCUUCCCCCCUAAAGGAGCAUAGUCACUACAACAGAGGAUUGAGCAUCA
B10: chr10:117126822:117126823:-_ENSMUSG00000020184_ENSMUST00000020408|mus_mus|motif|central (ssRNA)
RNA: GGGAGUUCUACAGUCCGACGAUCAGGUGCCUUUACUGGCUGAGUCUUCUCUGCAGCCCACAACUCACACAUUUUAGAUUACGGCAGUUUCAGAAUUUCAAUAACUUAAAUAUACAAUCCUUCACAUAGUCUUUAACUCUUUACCAACAGAGGAUUGAGCAUCA
B11: chr1:182792627:182792628:+_ENSMUSG00000038806_ENSMUST00000038091|mus_mus|motif|central (ssRNA)
RNA: GGGAGUUCUACAGUCCGACGAUCAGAGUGUGUACCAGAGGCCGAGCUCCGAGGACUGCCAGGUCGGUCGGCUGCCACCUCGGCAGCAUCAAUGCCGUCUUCCCGAGCACAGCAGCUCUGCUCCGAAGUCCCAGGAGCAUCCUCCAACAGAGGAUUGAGCAUCA
B12: chr16:94690476:94690477:+_ENSMUSG00000040785_ENSMUST00000117648|mus_mus|motif|central (ssRNA)
RNA: GGGAGUUCUACAGUCCGACGAUCAGAAAUGUAAUGUAUUCAAGGUUCACAUGUCUGUAUUUGCCACUGCCUACAGGUCACGGAAAAUACCUAGUUUUUGAAUAGUUUCUAAUACAGUUAGCUUGUUUUCAGGCCACAUUACAACAACAGAGGAUUGAGCAUCA
B13: 29794794_29795651_712_3pUTR_ENSMUSG00000019715_ENSMUST00000019859|mouse|control|control (ssRNA)
RNA: GGGAGUUCUACAGUCCGACGAUCGCCUGCUUCACACGCUGCUGCUCUGCCUCUCGAAGCUUUAGGUUGAGAAUCUUGGCUCUGUGGCGGUGCUCCUCUUUCAGCUUCUCCUGAUGGCCCAGGGCCUCCCUGGUACUCUUCUCCCAACAGAGGAUUGAGCAUCA
B14: chr9:44139228:44139229:+_ENSMUSG00000032123_ENSMUST00000054708|mus_mus|FALSE|FALSE (ssRNA)
RNA: GGGAGUUCUACAGUCCGACGAUCCCAGUUGUGGUAAAGCAGUCCCAAGGUGGUAAAGAAAAAUGGUAUCAUGAAGUAAAGGGAAAAGAUAUGAUCAUCUCGAUAAUCACCUUCCAGUUCCACCAGGUUGAAGACAAUGAUAGACAACAGAGGAUUGAGCAUCA

This assay addresses T1, UNK ZnF1-3. Kind of assay: nsRBNS (natural sequence RNA bind-n-seq); RBNS binding buffer (assumed for nsRBNS): 25 mM Tris pH 7.5, 150 mM KCl, 3 mM MgCl2, 0.01% Triton X-100, 500 ug/ml BSA, 20 U/ml SUPERase-In, 4 C; UNK is unkempt and MSI1 is Musashi-1; names of the RNAs are library labels; protein concentration not given here; high values mean tight binding.
Regarding B1, the binding signal came out at 1.55 enrichment R.

B2 displayed a binding signal of 1.58 enrichment R.

B3 displayed a binding signal of 1.21 enrichment R.

Molecule B4 yielded a binding signal of 2.7 enrichment R.

In turn, B5 came in with a binding signal of 1.06 enrichment R.

As to B6, the binding signal came out at 0.793 enrichment R.

On to B7, for which the binding signal turned out to be 0.885 enrichment R.

In the case of B8, the binding signal was determined as 0.971 enrichment R.

B9 returned a binding signal of 2.02 enrichment R.

Molecule B10 registered a binding signal of 1.03 enrichment R.

For the molecule B11, the binding signal was 0.788 enrichment R.

For B12, the binding signal turned out to be 0.656 enrichment R.

Consider B13, for which the binding signal was 0.632 enrichment R.

Turning to B14, the binding signal is 1.41 enrichment R.
